The labels stand for the following.
B1: LINE1-mini (parent)
chain: GGCAGAGCUCAACACAGCGUGGCAAAGUGGCUGUGGCUAGACUGCC

Read counts are not given, so values of variants with three or more changes are uncertain.

The series covers variants of B1. Put plainly: self-cleavage, relative activity (ratio to wild type); higher = more cleavage; in vitro, sequencing; the parent is a self-cleaving ribozyme.
For C37U G40C C45U, the self-cleavage came to 0.08.
As for C15U G44U C46G, the figure is 0.04; as for G36C C37U G44A, 0.02; as for A4G G22C C23U, 0.21.
As for G5A C15A U38C, the figure is 0.06.
With A12U C18G U20C the figure was 0.02; with A4C G22U G29U, 0.13.
For G5A C45U C46G, the self-cleavage turned out to be 0.12.
Turning to G5U A11C A12G G44U, the self-cleavage was found to be 0.
For the variant C8U A24G U34G, the self-cleavage stood at 0.13.
In the case of A14U U20A G30C C31U U34C U38A, the self-cleavage turned out to be 0.03.
With A12U U28G G29C U38C C46A the figure was 0.02; with C18A U20A G21A C42G, 0; with C15A U28G C37G, 0.07.
With G7U U9C U38G the figure was 0; with G1C A26G G40C, 0.
Consider G1A G22U C46A, for which the self-cleavage was 1.67.
With G5U C13A C31G the figure was 0.07; with G5C C15U C37G, 0.04.
As for G1A C18U C31U G36C, the figure is 0.08.
Consider G2U G7C A16U, for which the self-cleavage is 0.03.
As for C10A A26G G27U G33C U38C G44A, the figure is 0; as for G2C A12U G30C C45G, 0.03.
Take G5U U20C C31U A39U C42G: the self-cleavage is 0.
As for G2U G19C U38A C42U, the figure is 0.02.
As for C13G U20C C23A, the figure is 0.07; as for A16G C18G U28G G29A U32A, 0.05; as for C18U G21A G22U G36U, 0.04.
With C3A A6U A39C the figure was 0.26; with U28A G30A G35C, 0.01.
Take C31A G35U A39C: the self-cleavage stood at 0.05.
As for A26G U28C G29U G36U G40C, the figure is 0.04; as for G7A C8G U20G G29A G35A U38C, 0.15.
As for G1A A24G G30U, the figure is 1.51; as for G1A G2A A12C G17C, 0.11; as for C8A A14C G19U, 0.04.
As to C23G G30C G40C, the self-cleavage was determined as 0.07.
As for C23U A25C G35C, the figure is 0.1.
G1U A25C G33A C37A G44A: the self-cleavage was 0.02.
On to C8U A16U G17C U34C A39U U43A, for which the self-cleavage is 0.06.
With U28G G29U C31A A41U, the self-cleavage worked out at 0.19.
As for C18A G19C A25U G36U, the figure is 0.06; as for G5C G30C G36U, 0.04; as for A16C G27A U28C, 0.12.
For the variant C3U C13A A16U C23G G27C G33C G44C, the self-cleavage came to 0.02.
As to G1U G7U G17U G22U U43G, the self-cleavage worked out at 0.
As for U20G G33C C42A C46G, the figure is 0.02.
As for C15U U43G G44C, the figure is 0.12.
Turning to G33C C37U G44U, the self-cleavage worked out at 0.01.
As for A12G A14C C18A U28G, the figure is 0.04; as for U28G C31U C42A, 0.04; as for C13G A24C C31U U38A, 0.01.
As for C8A G22A C46A, the self-cleavage stood at 0.21.
As for G1A G5U A6U C18G G19C U20A G33U, the figure is 0.06; as for C13U G19U G36A C45U, 0.05.
As to C10U A11G U32G G35A, the self-cleavage amounted to 0.
In the case of A14G A26U U28A, the self-cleavage was 0.23.
In the case of C3A C10A A14U G17A G19U, the self-cleavage stood at 0.03.
With G29A U32A C42A the figure was 0.08.
For A16U C23G G40A, the self-cleavage was found to be 0.02.
On to G7U U9G U28C U32G G33U C37G C46U, for which the self-cleavage was 0.04.
As to A14C G17C C46U, the self-cleavage was determined as 0.04.
With A16C G19A G22C U38C the figure was 0.02; with C10A A11U C37A, 0.02; with G21U G29U C46A, 0.72.
As for U9A G21A C31U, the figure is 0.04; as for G2U U9G C18G G27U G33U, 0.01; as for G1C A12U G17A G35C, 0.02.
As for C10A A12U G27A C31A U32C G33U, the figure is 0; as for G5U G21U U32G, 0.03.
For the variant C3A G5A U9A C10G C37U G44C, the self-cleavage amounted to 0.03.
With A25G U38A C42U the figure was 0.04.
With A11U C15G G21A A26U G29C G35A C46G the figure was 0.01; with A16U G27C C31U U32A C37G, 0.02; with G2C A6C G17C A24G A25C G40A, 0.04.
G1C G17U A26U U32A C37U: the self-cleavage turned out to be 0.01.
With G1A G29A G33U C46G the figure was 0.12.
As for C18A C23A C45G, the figure is 0.05; as for A12U G22U U34G, 0.01.
With C13U C18A G22U G30A the figure was 0.08.
For the variant C31G U32G G36C, the self-cleavage stood at 0.03.
Consider A4U U9A C13A G21A G30U G33A, for which the self-cleavage amounted to 0.17.
As for G22C G29C U43G, the self-cleavage amounted to 0.01.
With G1C G30C U32G A39C the figure was 0.01; with C3A C15A C23U G29U, 1.29; with A12G U28A A39G, 0.02.
For C10U G33C G35C, the self-cleavage was 0.05.
With A11C C15U G21A C23G U32A the figure was 0; with A11U C23A A26U, 0.06; with A6C C10A U28A U43G, 0.07.
With C18A G29C C31A C37G the figure was 0.02.
Consider A4G G33C U34G G35U, for which the self-cleavage worked out at 0.63.
For the variant C23A G33C A39C, the self-cleavage came to 0.06.
As for A11U G17A C23U, the figure is 0; as for A16G C18G A24C G33U A41G C45U, 0.01.
Turning to G2U A14G A26C U34C, the self-cleavage turned out to be 0.01.
As for U9A G21A C42A, the figure is 0.38; as for G2U G22U U32A, 0.04; as for A14G A39U A41U, 0.1.
On to U9A A26G U38A, for which the self-cleavage came out at 0.08.
As for A6G A14G G30A U43A, the figure is 0.08.
With G1U A11U G22A C23G the figure was 0.04; with G5U C13U U28G U34G G44U, 0.02; with U20A G27U C31A C42A, 0.04.
As for G7A U9G C23G U34C, the figure is 0.02; as for U20A C23U U34A A41C, 0.08; as for G7U A11U C42A, 0.02.
For C13U C23U U38G U43C, the self-cleavage came to 0.
With A12C G29U C37A C45A the figure was 0.02.
With C10A C23G C45U the figure was 0.06; with G7U C10U A24C U28G C31G U32A, 0.01.
C13A G17A G36C: the self-cleavage amounted to 0.03.
As for G2A U9G G29U C42A, the figure is 0.1.
Take C13G G35A G36C: the self-cleavage was determined as 0.11.
With G5A C10G A11C C45U the figure was 0.03; with C3U U38C A41C U43G, 0.3; with A14U G22U A24G, 0.58.
For the variant C3G C13G C37G, the self-cleavage came to 0.07.
With C10U A11G C13G G40C the figure was 0.01; with G1U C8U C18A G19C U32A, 0.01; with C3A A6U A14G A24U U28C, 0.33.
As for C31A A41G U43A, the figure is 0.02; as for G2A C8U A39C G40U, 0.06; as for G33C U34G G35C G40C C46U, 0.
Take A4G C37U A41C: the self-cleavage came to 0.02.
With C10G A25U C31A the figure was 0.02; with C13U C45A C46G, 0.08; with A6U G17U A24U, 0.09.
With G2A C8U G44U the figure was 0.05; with G2U G33U C45U, 0.02.
With G5C U9A A11U C13A G30A C46G the figure was 0.02; with G1C A16G G19A G36C, 0.
Consider A6U A12G A16G G22A G27C, for which the self-cleavage amounted to 0.02.
Take C10G U20C G40A: the self-cleavage stood at 0.01.
Consider G21U A26G G27C U28C, for which the self-cleavage was found to be 0.2.
For A4C A25U C37U, the self-cleavage amounted to 0.02.
A4C G5C G30A A41G C45G: the self-cleavage is 0.04.
With A24C A26C A39U the figure was 0.14; with A11G G17U A26G, 0.01.
Regarding C15U A24C G30U C46A, the self-cleavage stood at 0.02.
Turning to G17C C18U G19A, the self-cleavage worked out at 0.04.
With G7C U9C C46A the figure was 0.02; with A14C G27A A39U, 0.01.
With C10G A12U A16C C18G G30C C45G C46A the figure was 0.
Turning to C18G A25U C31G, the self-cleavage amounted to 0.05.
With A6G C37U C42A the figure was 0.09.
With G2U A14U A26G C37A the figure was 0.04; with C8G C10U G22U G36A, 0.24.
As for G1U C37G G40U, the figure is 0.03; as for G7U G17C G40U A41C, 0.14.
Take G1C A6C C10G U28G G35U: the self-cleavage came to 0.01.
With G5A C8G A12U G35C the figure was 0.01.
In the case of C8G C13U C23G G29C U32A, the self-cleavage was 0.04.
Take C3A A4C C15G: the self-cleavage came to 0.24.
As to C3U C10U A24G A39U, the self-cleavage came to 0.11.
With C3G A4G G27A C31G the figure was 0.04.
As for A11C U43C G44U, the figure is 0.04.
For C3A A25U G35U A39G U43A, the self-cleavage is 0.27.
For the variant A26C G33A G36U G44A, the self-cleavage is 0.04.
As for G5U C10U G27A G29U G33U U38C, the figure is 0.03; as for U9C G36U G44C, 0.07; as for A6G C10A C15U G33U, 0.01.
As for G1U U28C G40C C45U, the figure is 0.
As for G19U A25G A39C G44U, the figure is 0.01; as for A11U C18G C37U A41C, 0.
As for U9G A16G G40C, the self-cleavage stood at 0.08.
With A25C G35A A41U C46A the figure was 0.08.
